Eight substances from PMC10036327 can be followed below.

Protein sequences, listed by entry. Tags and fused reporters are not part of them. Lines headed by an entry give the natural chain unless they say otherwise; changes in a name come on top.
UniProt Q13485: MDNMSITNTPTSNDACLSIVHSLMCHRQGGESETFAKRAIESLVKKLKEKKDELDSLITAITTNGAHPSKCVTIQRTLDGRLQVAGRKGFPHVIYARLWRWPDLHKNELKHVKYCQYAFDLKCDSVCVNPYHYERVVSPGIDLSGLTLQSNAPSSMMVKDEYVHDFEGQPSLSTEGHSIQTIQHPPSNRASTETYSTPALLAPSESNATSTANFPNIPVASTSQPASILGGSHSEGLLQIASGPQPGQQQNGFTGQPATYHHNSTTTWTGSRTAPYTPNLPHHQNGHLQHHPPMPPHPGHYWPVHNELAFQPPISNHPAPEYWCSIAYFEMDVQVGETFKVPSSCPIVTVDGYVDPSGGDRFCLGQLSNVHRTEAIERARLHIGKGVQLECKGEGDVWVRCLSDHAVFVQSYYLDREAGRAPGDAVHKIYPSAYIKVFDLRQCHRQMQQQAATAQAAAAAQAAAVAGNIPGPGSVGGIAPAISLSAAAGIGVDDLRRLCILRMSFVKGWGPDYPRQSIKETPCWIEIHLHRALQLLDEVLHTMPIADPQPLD
UniProt P00519: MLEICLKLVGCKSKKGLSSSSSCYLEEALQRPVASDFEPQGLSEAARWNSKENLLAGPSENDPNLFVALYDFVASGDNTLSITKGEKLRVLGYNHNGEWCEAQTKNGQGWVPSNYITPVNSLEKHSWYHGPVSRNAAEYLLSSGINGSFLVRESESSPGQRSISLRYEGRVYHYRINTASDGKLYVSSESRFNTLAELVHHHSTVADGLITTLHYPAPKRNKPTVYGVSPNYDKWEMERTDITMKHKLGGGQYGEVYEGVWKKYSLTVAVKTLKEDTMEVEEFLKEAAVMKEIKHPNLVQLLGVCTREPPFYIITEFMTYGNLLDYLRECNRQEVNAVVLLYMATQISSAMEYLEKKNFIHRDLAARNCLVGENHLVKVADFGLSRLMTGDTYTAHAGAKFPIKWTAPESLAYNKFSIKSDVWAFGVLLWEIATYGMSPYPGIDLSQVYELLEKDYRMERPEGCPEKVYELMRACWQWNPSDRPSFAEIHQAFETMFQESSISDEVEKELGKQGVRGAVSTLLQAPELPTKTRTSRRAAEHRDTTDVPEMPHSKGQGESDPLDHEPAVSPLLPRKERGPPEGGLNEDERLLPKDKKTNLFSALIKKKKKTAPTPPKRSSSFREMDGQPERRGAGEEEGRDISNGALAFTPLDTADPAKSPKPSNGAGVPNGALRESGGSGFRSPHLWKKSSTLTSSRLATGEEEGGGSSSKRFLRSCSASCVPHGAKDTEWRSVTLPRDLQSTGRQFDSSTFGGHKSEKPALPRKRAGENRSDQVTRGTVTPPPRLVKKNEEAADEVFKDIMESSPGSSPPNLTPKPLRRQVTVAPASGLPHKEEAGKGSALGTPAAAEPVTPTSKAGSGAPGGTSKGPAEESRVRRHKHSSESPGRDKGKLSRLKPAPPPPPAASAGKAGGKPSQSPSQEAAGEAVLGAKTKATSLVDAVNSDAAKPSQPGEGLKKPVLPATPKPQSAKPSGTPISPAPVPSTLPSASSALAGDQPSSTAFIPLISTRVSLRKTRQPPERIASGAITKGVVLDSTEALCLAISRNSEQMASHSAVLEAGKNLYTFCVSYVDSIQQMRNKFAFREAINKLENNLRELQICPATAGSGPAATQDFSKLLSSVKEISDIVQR
UniProt Q15796: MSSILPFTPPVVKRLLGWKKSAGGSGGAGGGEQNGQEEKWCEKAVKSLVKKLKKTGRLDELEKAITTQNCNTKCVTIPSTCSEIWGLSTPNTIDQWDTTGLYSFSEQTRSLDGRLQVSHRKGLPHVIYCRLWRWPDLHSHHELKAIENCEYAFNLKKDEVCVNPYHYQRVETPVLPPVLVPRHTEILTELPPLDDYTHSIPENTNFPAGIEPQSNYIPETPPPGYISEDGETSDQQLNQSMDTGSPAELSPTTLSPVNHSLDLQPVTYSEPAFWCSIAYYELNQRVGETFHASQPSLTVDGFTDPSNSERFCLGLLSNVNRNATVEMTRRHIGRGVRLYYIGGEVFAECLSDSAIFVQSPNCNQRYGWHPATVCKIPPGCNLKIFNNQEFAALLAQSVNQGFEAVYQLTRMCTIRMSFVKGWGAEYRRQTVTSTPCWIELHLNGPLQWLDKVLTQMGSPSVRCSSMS
UniProt P84022: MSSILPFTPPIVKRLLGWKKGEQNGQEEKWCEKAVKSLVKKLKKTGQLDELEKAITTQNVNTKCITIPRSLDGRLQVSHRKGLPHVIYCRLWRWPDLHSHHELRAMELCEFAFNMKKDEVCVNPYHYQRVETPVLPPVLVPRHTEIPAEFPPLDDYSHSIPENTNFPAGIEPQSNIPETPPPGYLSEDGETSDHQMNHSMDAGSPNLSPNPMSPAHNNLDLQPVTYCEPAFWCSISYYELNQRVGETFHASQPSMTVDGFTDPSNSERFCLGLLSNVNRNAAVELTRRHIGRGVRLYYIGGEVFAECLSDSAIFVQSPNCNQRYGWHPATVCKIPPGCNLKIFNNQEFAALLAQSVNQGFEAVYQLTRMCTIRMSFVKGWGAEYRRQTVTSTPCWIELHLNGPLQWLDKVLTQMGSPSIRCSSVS
UniProt Q09472: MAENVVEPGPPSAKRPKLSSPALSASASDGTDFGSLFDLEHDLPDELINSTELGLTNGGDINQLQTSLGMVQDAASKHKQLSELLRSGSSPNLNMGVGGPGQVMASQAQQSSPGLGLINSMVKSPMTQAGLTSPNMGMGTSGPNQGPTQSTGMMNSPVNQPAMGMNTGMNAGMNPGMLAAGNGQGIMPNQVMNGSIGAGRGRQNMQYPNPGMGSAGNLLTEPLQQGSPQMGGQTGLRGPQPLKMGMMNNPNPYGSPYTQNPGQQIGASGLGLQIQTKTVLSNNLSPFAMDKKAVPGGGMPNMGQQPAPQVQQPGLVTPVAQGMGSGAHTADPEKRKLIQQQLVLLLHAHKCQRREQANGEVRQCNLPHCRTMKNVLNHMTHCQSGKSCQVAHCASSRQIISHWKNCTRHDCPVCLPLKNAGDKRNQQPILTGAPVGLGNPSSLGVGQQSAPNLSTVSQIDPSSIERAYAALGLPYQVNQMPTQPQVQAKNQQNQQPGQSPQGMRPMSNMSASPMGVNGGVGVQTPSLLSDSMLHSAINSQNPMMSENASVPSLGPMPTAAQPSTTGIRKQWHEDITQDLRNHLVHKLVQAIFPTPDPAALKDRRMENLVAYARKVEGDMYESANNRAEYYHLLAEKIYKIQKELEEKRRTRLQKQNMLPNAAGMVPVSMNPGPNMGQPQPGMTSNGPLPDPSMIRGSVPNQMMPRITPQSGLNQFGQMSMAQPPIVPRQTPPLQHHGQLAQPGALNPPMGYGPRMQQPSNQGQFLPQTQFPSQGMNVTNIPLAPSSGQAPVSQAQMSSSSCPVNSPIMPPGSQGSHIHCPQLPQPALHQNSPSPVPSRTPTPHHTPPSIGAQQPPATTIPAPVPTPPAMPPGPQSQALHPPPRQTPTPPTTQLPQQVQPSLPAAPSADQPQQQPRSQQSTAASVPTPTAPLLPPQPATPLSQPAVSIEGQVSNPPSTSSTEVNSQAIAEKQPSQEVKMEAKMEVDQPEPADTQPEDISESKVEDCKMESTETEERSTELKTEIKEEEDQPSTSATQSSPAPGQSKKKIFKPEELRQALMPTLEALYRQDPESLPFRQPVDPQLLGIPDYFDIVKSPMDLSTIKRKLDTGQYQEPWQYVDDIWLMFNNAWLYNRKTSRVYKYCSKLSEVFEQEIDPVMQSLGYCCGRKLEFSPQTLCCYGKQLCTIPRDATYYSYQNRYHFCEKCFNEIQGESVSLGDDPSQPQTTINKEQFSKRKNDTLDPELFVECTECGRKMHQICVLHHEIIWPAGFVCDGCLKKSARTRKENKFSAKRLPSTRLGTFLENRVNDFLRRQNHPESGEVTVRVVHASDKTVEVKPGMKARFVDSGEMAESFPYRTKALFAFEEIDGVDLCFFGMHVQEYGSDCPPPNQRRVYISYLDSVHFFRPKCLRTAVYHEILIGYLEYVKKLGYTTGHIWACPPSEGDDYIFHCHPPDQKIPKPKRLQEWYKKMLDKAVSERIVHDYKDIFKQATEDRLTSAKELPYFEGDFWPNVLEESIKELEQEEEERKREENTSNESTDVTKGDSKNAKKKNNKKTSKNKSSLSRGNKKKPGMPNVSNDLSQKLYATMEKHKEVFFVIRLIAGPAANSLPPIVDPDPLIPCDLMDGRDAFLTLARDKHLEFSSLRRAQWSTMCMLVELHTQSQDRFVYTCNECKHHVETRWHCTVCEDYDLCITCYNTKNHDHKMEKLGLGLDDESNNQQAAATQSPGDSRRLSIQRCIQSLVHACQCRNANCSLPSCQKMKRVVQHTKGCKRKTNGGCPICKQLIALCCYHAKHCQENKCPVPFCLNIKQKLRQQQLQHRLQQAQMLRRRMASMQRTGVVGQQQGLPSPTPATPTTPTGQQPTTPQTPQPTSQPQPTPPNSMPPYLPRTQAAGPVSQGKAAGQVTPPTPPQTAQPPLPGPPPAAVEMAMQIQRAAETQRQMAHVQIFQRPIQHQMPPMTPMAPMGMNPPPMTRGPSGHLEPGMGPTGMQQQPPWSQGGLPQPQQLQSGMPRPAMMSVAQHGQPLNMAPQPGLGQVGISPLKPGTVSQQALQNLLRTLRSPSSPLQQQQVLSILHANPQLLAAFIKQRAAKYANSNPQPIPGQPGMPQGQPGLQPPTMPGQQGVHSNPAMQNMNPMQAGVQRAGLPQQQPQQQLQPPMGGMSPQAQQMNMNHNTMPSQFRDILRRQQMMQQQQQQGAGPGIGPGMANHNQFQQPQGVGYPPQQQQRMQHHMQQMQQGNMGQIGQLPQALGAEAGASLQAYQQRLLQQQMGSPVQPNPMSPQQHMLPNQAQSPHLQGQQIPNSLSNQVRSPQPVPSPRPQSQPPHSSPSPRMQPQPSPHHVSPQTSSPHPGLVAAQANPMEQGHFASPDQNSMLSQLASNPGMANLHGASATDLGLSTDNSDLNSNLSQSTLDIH

No constants are given. Whether binding was seen depends on the method and setting. Binding seen in cells or lysates may run through a third protein. Some results given as binding are weak or reduced against the parent protein; the word gives no strength.

The target in test [1] is FLAG-Smad4 (UniProt Q13485). Nature of the test: co-IP; co-IP of Smad4 variants with CBP (Supplementary Fig. 5h) and of the YF mutant with p300 (Supplementary Fig. 5i); cells and tags not shown.
The target of test [2] is ABL1 (UniProt P00519). Nature of the test: co-IP; HEK293T cells transiently transfected with tagged expression plasmids; lysates incubated with primary antibody (anti-FLAG as in Fig. 3a) and protein A Sepharose at 4 °C for 4 h; western blotting; in Fig. 5g with co-expressed FLAG-ABL1 or FLAG-ABL1-KD.
Test [3] deals with FLAG-Smad4 YE mutant (Y195E/Y301E/Y322E) (UniProt Q13485). Described as above.
A further test concerns the target MYC-Smad4 (UniProt Q13485). The test is described as above.
Test [4] addresses FLAG-Smad4 (UniProt Q13485). Described as above.
Test [5] addresses Smad4 YF mutant (Y195F/Y301F/Y322F) (UniProt Q13485). The experiment in a line: co-IP; co-IP of Smad4 variants with CBP (Supplementary Fig. 5h) and of the YF mutant with p300 (Supplementary Fig. 5i); cells and tags not shown.
In test [6] the target is ABL1 (UniProt P00519). The experiment in a line: co-IP; domain mapping: Smad4 co-expressed individually with ABL1 deletion mutants, and ABL1 with Smad4 domains (Supplementary Fig. 3c-f); cells and tags not shown.
Test [7] concerns the target Smad4 YE mutant (Y195E/Y301E/Y322E) stably expressed in Smad4-null HaCaT cells (UniProt Q13485). Nature of the test: co-IP; Smad4-null HaCaT cells stably expressing WT or YE mutant of Smad4, treated with TGF-β or SB431542; IP-western blotting.
In test [8] the target is Smad4 WT stably expressed in Smad4-null HaCaT cells (UniProt Q13485). Described as above.
Test [9] deals with Smad4, endogenous in HaCaT cells (human (endogenous in HaCaT)) (UniProt Q13485). The experiment in a line: co-IP; endogenous proteins, HaCaT cells with or without stable expression of ABL1, treated with TGF-β or SB431542; IP-western blotting.
Test [10] has as its target Smad4, endogenous in K562 cells (human (endogenous in K562)) (UniProt Q13485). The experiment in a line: co-IP; endogenous proteins, K562 cell lysate, without Imatinib (Fig. 5i: TGF-β 2 ng/ml or SB431542 5 μM); IP-western blotting.
The target is the same in test [11]. The experiment in a line: co-IP; endogenous proteins, K562 cells treated with Imatinib (0.5 μM), with TGF-β (2 ng/ml) or SB431542 (5 μM) as indicated; IP-western blotting.

In the case of CBP (from UniProt Q92793 1-2442), the binding result in the test with FLAG-Smad4 [1] is recorded as “binds”.
For the substance FLAG-Smad4 (from UniProt Q13485 1-552), the binding result in the test with ABL1 [2] is “binds”.
Regarding HA-Smad2 (from UniProt Q15796 1-467), the binding entry in [3] is on record as “binds”.
In the case of HA-Smad3 (from UniProt P84022 1-425), the binding entry in test [3] is “binds”.
Regarding HA-p300 (from UniProt Q09472 1-2414), the binding result (with MYC-Smad4; in the test with FLAG-Smad4 [4]; in test [5]) was “binds” throughout.
Take “MH2 domain of Smad4 (from UniProt Q13485 323-552) (domain or fragment)”: the binding entry in the test with ABL1 [6] was “binds”.
With “p300, endogenous in HaCaT cells (from UniProt Q09472 1-2414)”, the results for the binding result in test [7], in test [8] and in test [9] were “no binding”, “binds” and “binds”, respectively.
On to “p300, endogenous in K562 cells (from UniProt Q09472 1-2414)”, for which the values for the binding entry in [10] and in [11] were “binds weakly” and “binds”, respectively.
